Source: PubChem BioAssay AID651791 (National Center for Advancing Translational Sciences (NCATS), 2012)
The inconclusive results got no clear call from the source; some entries with a clear call stand among them for comparison. Potencies of inconclusive entries are left out as doubtful fits. Active and inactive are the calls of the source. Calls come from the whole dose curve; as a rule, active = well fitted inhibition curve with a large enough effect; inconclusive = small, poorly fitted or top-dose-only effect; inactive = no such curve, though single readings can be large or run the other way.

Test: InCell qHTS Assay for Inhibitors of the mTORC1 Signaling Pathway in MEF (Tsc2-/-, p53-/-) Cells: Hit Validation;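 note: phospho-S6 Ser235/236 signal normalized to propidium iodide cell count per well; nearly all actives have a fitted effect of over 75% in size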
Settings: phospho-rpS6 immunofluorescence, 24 h
Potency is the fitted concentration of half-maximal effect; tags give direction and shape of the fitted curve.

Q: For Oc1ccc(NCc2ccccc2OCc2ccccc2F)cc1, which Potency is on record?
A: inconclusive [inhibitor, single point]

Q: With Cc1ccc(C)c(Cn2c3ccccc3c3cnn(CC(=O)NC(C)CCc4ccccc4)c(=O)c32)c1 (stereo not drawn) as the molecule, how does the Potency read?
A: inconclusive [inhibitor, single point]

Q: Which Potency does the source give for Cc1ccc(C)c(NC(=O)c2nc(S(=O)(=O)Cc3ccc(F)cc3)ncc2Cl)c1 here?
A: active: 3.29 µM

Q: With CCCS(=O)(=O)c1ncc(Cl)c(C(=O)N2CCN(c3ccc(OC)cc3)CC2)n1 as the molecule, how does the Potency read?
A: active: 1.85 µM

Q: Which Potency does the source give for O=C(COc1ccccc1-c1nc(-c2ccccc2)no1)Nc1cccc([N+](=O)[O-])c1 here?
A: inconclusive [inhibitor, single point]

Q: Which Potency does the source give for CC(=O)C1=C(c2ccccc2)N(C(C)=O)n2c(nnc2C2CCCCC2)S1 here?
A: inconclusive [inhibitor, single point]

Q: Which Potency does the source give for Cc1ccc(-n2c(=O)c3ccc(C(=O)NCc4ccco4)cc3n(Cc3ccc(Cl)cc3)c2=O)cc1 here?
A: inconclusive [inhibitor, single point]

Q: Which Potency does the source give for Cc1ccc(CS(=O)(=O)c2ncc(Cl)c(C(=O)Nc3nnc(C(C)C)s3)n2)cc1 here?
A: active: 6.56 µM
